# Measurements from PubChem BioAssay AID463173 (ICCB-Longwood Screening Facility, Harvard Medical School, 2010).
# Out of some 52,000 compounds screened, about 1,700 (3.3%) were called active. Rule as the data show it: active = survival mostly below about 52% (no sharp cut-off); inactive = mostly above about 56%. Some of the results follow.
# Test system: Wild type
# Test: S. aureus survival, RN4220 and DeltatarO strains – OD600, teichoic acid synthesis inhibitors, primary screen (AID 463173)
# Settings: S. aureus RN4220 wild type/DeltatarO growth, OD600, 18 h, stronger effect = lower value, screened at 18.75 µg/mL (by protocol)
row,SMILES,survival
1,Cc1ccc2occ(CC(=O)Nc3c(C)cccc3C)c2c1,inactive: 113%
2,CCCN(C(=O)c1ccc2c(=O)n3c(nc2c1)CCCCC3)c1cccc(Cl)c1,inactive: 85%
3,Cc1cc(C)cc(NCc2nnc3n2CCCCC3)c1,inactive: 85%
4,Cc1cccc(C)c1NC(=O)CCSCCc1ccccn1,inactive: 75%
5,COc1cn(CC(=O)Nc2ccc(C)cc2)c(CN2CCCCC2)cc1=O,inactive: 73%
6,COc1ccc(OCC(=O)N2CCN(C(=O)c3ccc(OC)c(OC)c3)CC2)cc1,inactive: 134%
7,COc1ccccc1CN1CCC(CNC(=O)c2cnn(-c3cccc(Cl)c3)c2C2CCN(C(=O)OC(C)(C)C)CC2)CC1,inactive: 88%
8,Cc1c(NS(=O)(=O)c2ccc(C(C)(C)C)cc2)c(=O)n(-c2ccccc2)n1C,inactive: 62%
9,CC(=O)N1CCc2cc(Br)cc(S(=O)(=O)CCC(=O)NCc3ccc(F)cc3)c21,inactive: 73%
10,O=C(CCNS(=O)(=O)c1ccc2c(c1)CCN2C(=O)C1CC1)Nc1ccc(Cl)cc1,inactive: 71%
11,COCC(C)NCc1ccccc1OC (stereo not given),inactive: 110%
12,Cc1cc2c(cc1S(=O)(=O)NCc1ccc(F)cc1)OCC(=O)N2,inactive: 82%
13,Cc1cccc(NC(=O)CN2C(=O)C(c3ccc(F)cc3)=NC23CCCCCC3)c1C,inactive: 73%
14,COc1ccc(NC(=O)CN2C(=O)COc3ccc(S(=O)(=O)NC4CCCC4)cc32)cc1OC,inactive: 71%
15,COc1ccc(C(=O)Nc2ccccc2)cc1,inactive: 107%
16,O=C(c1ccccc1)n1nc(-c2ccc(Cl)cc2)nc1NCc1ccco1,active: 25%
17,CCOC(=O)c1cc2c(=O)n3ccccc3nc2n(CCOC)c1=NC(=O)c1c(-c2c(F)cccc2Cl)noc1C,inactive: 127%
18,CSc1ccc(CCNC(=O)Cn2ncc3c([nH]c4ccccc43)c2=O)cc1,inactive: 69%
19,Cc1ccc(C2C(C#N)=C(N)SC(N)=C2C#N)c(C)c1,inactive: 116%
20,Cc1ccc(-n2ncc3c(NC4CCCCC4)ncnc32)cc1C,inactive: 67%
21,COc1ccccc1C(=O)NC(=O)Nc1ccc(-c2cc(C(F)(F)F)nn2-c2ccccc2)cc1,active: 5%
22,CCOc1ccc2c(c1)NC(c1ccc(OCC)c(OCC)c1)=NC(c1ccc(F)cc1)=N2,inactive: 81%
23,CCc1ccc(N(CC)C(=O)c2cn(C)c(=O)c3cc(OC)c(OC)cc23)cc1,inactive: 148%

row,SMILES,survival
1,CCc1ccc(C(=O)c2cn(CC(=O)Nc3ccc4c(c3)OCO4)c3ccc(Cl)cc3c2=O)cc1,inactive: 79%
2,Cc1cc(=O)[nH]c2c(C)c(Cl)ccc12,inactive: 108%
3,Cc1ccc(NC(=O)Cn2nc(C(F)(F)F)c3c2CCCC3)cc1,inactive: 126%
4,CCN(CC)c1ccc(NC(=O)C2CCN(S(=O)(=O)c3c(C)noc3/C=C/c3ccccc3F)CC2)c(C)c1,inactive: 138%
5,CC(C)(C)C1CCc2c(sc3nc(-c4cc5cc(Cl)ccc5oc4=O)[nH]c(=O)c23)C1 (stereo not given),inactive: 84%
6,CCOc1ccc(CCNC(=O)c2c3c(nc4ccccc24)C(=O)N(C2CCCCC2)C3)cc1,inactive: 68%
7,CCn1c(CNC(=O)c2ccc(OC)cc2)nnc1SCC(=O)Nc1cccc(C)c1,inactive: 119%
8,Cc1ccc(S(=O)(=O)N2CCCc3cc(NC(=O)c4ccc(Cl)cc4)ccc32)cc1,inactive: 77%
9,Cc1ccc(S(=O)(=O)NCCc2nnc3ccc(SCC(=O)Nc4c(C)cc(C)cc4C)nn23)cc1,inactive: 86%
10,COc1ccccc1NC(=O)c1cc2cc3ccc(OC)c(Cl)c3nc2s1,inactive: 79%
11,O=c1c(Cl)c(N2CCN(CCO)CC2)cnn1-c1ccccc1,inactive: 107%
12,COC(=O)c1c(NC(=O)c2cc(=O)c3cc(C)cc(C)c3o2)sc2c1CCC2,inactive: 86%
13,CCOC(=O)c1ccc(NC(=O)c2nc(SCc3ccc(F)cc3)ncc2Cl)cc1,inactive: 110%
14,Cc1ccc(CC(=O)NCc2nc(-c3ccccc3)no2)cc1,inactive: 89%
15,O=C(NCCc1ccccc1Cl)c1cc2ccccn2n1,inactive: 140%
16,CCCCn1c(=O)c2oc3ccccc3c2n(Cc2ccc(C)cc2)c1=O,inactive: 86%
17,Cc1cc(SCC(=O)Nc2ccc(F)cc2F)nc(=O)[nH]1,inactive: 115%
18,COc1ccc2ncc3c(-c4ccc(C)c(C)c4)nn(CC(=O)Nc4ccccc4)c3c2c1,inactive: 81%
19,CCCN(CCC)CN1C(=O)S/C(=C/c2ccc(N(CC)CC)cc2)C1=O,inactive: 116%
20,O=C(Cn1cc(S(=O)(=O)Cc2ccccc2F)c2ccccc21)Nc1ccc(F)c(Cl)c1,inactive: 77%
21,COc1ccc(CNc2ncnc3c2c(-c2ccccc2)cn3-c2ccc(C)c(Cl)c2)cc1,inactive: 73%
22,COc1ccc(NC(=O)Cn2c(=O)n(-c3ccc(OC)cc3)c(=O)c3sc4ccccc4c32)cc1,inactive: 134%
23,COc1ccc2c(CNCc3ccco3)c(C(=O)O)n(Cc3cccc(F)c3)c2c1,inactive: 57%

row,SMILES,survival
1,COc1cccc(C(=O)Nc2nc(-c3nnn(-c4cccc(Cl)c4C)c3C)ns2)c1,active: -6%
2,COc1ccc(C(=O)Nc2ccc(-c3nc4ccccc4s3)c(Cl)c2)cc1Cl,inactive: 98%
3,Cn1c(NCCCO)nc2c1c(=O)n(Cc1cccc(F)c1)c(=O)n2C,inactive: 88%
4,CCCN(CCC)C(=O)C1CCN(c2cc(C)nc3c(-c4ccc(Cl)cc4)c(C)nn23)CC1,inactive: 87%
5,O=C(NCCO)c1ccc(-c2nnc(Nc3ccc(OC(F)(F)Cl)cc3)c3ccccc23)cc1,inactive: 126%
6,COc1cc(C(=O)Nc2cc(C)c(O)c(-c3nc4ccccc4s3)c2)cc(OC)c1OC,inactive: 83%
7,Cc1ccc(C)c(NC(=O)c2oc(=O)c3ccccc3c2-c2ccccc2)c1,inactive: 57%
8,Cc1cc2nc(-c3ccc(OCc4ccccc4F)cc3)cc(C(F)(F)F)n2n1,inactive: 75%
9,CCCc1nn2c(=O)cc(COC(=O)c3ccc4c(c3)OCO4)nc2s1,inactive: 72%
10,O=C1/C(=N\O)CCc2c1no[n+]2[O-],inactive: 98%
11,Cn1c(NCCN)nc2c1c(=O)n(Cc1ccccc1)c(=O)n2C,inactive: 86%
12,CCN(CC)N=Nc1ccc(S(=O)(=O)N2CCSC2C(=O)O)cc1 (stereo not given),inactive: 109%
13,CCOC(=O)c1cccc(NC(=O)C2=C(C)C(=O)OC23CCCCC3)c1,inactive: 82%
14,Cc1ccc(C)c(N2CCN(C(=O)Cn3cnc4nc5c(cc4c3=O)CCCC5)CC2)c1,inactive: 76%
15,Cc1ccc(C)c(Cn2c(SCC(=O)NCc3ccccc3)nc3ccccc32)c1,inactive: 69%
16,CCC(=O)N1CCc2cc(S(=O)(=O)NC(Cc3ccccc3)C(=O)Nc3cccc(OC)c3)ccc21 (stereo not given),inactive: 79%
17,Cc1cccc(N(C)c2ccc3cc(S(=O)(=O)N4CCCC4)ccc3n2)c1,inactive: 72%
18,Cc1ccc2c(c1)c(N1CCCC1=O)c(C(=O)Nc1ccc(F)cc1F)n2C,inactive: 83%
19,O=C(CCCCCn1c(=O)[nH]c2ccccc2c1=O)NCc1ccccc1,inactive: 83%
20,O=C(C1CCCN(S(=O)(=O)c2cccc3nsnc23)C1)N1CCN(c2ccccc2Cl)CC1 (stereo not given),inactive: 126%
21,Cc1ccc(-c2nnc3c4ccccc4c(C)nn23)cc1NC(=O)c1ccccc1Cl,inactive: 68%
22,COc1cccc(N2CCN(c3ncnc4onc(-c5ccc(F)cc5)c34)CC2)c1,inactive: 70%
23,Cc1ccc(S(=O)(=O)c2nnn3c2nc(N2CCCC2)c2sccc23)cc1,inactive: 111%

row,SMILES,survival
1,CCOC(=O)c1cc(S(=O)(=O)N2CCN(c3ccc(C)cc3C)CC2)[nH]n1,inactive: 72%
2,Cc1ccc(C)c(NC(=O)CSC2=Nc3ccccc3N=C(c3ccc(F)cc3)C2)c1,inactive: 79%
3,CN(C)c1ccc(NC(=O)Cn2cc(S(=O)(=O)Cc3cccc(Cl)c3)c3ccccc32)cc1,inactive: 60%
4,Cc1nc2scc(C)n2c(=O)c1S(=O)(=O)N1CCN(c2cccc(C(F)(F)F)c2)CC1,inactive: 59%
5,COc1ccc(N2CC(NC(=O)c3cc4ccccc4o3)CC2=O)cc1 (stereo not given),inactive: 74%
6,Clc1ccccc1CN1CCN(Cc2ccco2)CC1,inactive: 101%
7,CC(=O)c1cc(-c2ccccc2)n(CCC(=O)Nc2ccc(C)cc2C)c1C,inactive: 85%
8,COC(=O)c1c(NC(=O)Nc2ccc(Cl)cc2)sc(C)c1C,inactive: 82%
9,COc1ccccc1CNC(=O)CCC1N=C2c3ccccc3N=C(SCc3ccc(C)cc3)N2C1=O (stereo not given),inactive: 118%
10,C=CCn1c(CNC(=O)c2ccccc2)n[nH]c1=S,inactive: 110%
11,O=C(COC(=O)C1CC(=O)N(Cc2ccco2)C1)c1ccc(OC(=O)c2ccco2)cc1 (stereo not given),inactive: 85%
12,CC1CCN(C(=O)c2ccc(N3C(=O)c4ccccc4C3=O)cc2)CC1,inactive: 108%
13,CC1Cc2cc(S(=O)(=O)NCCc3ccccc3)ccc2N1C(=O)C1CCC1 (stereo not given),inactive: 58%
14,CCCc1nnc(NC(=O)c2cc(=O)c3cc(Cl)ccc3o2)s1,inactive: 77%
15,COc1ccc(CCC(=O)NCCc2csc(-c3ccc(C(F)(F)F)cc3)n2)cc1,inactive: 80%
16,O=S1(=O)c2ccccc2-c2cc(Br)ccc21,inactive: 121%
17,Cc1ccc2c(c1)N(C(=O)Nc1cccc(C)c1C)CCO2,inactive: 89%
18,CS(=O)(=O)N1CCc2cc(C(=O)N3CCN(c4ccccc4)CC3)ccc21,inactive: 89%
19,CC1CCC(N2CC(=O)N(C3CCCCC3)C(c3ccc(F)cc3)C2=O)CC1 (stereo not given),inactive: 99%
20,COc1ccc(CNCCC(c2ccccc2)c2ccc3c(c2)OCO3)cc1 (stereo not given),active: 3%
21,O=C(NC1CCN(C(=S)NCc2ccco2)CC1)NC12CC3CC(CC(C3)C1)C2,inactive: 108%
